# Measurements from the supplement of paper PMC8728848.
# The other results are listed elsewhere or left out.
# B1: Epa9 (Candida glabrata), CAGL0A01386g (protein)
# chain: MGSSHHHHHHSSGLVPRGSHMDITPFAHYPRPEGCSSPPNAVSVGLHMDLYNYPYLYVKNPRTGFTNDTDSDADGETDGDSAGGIEGRAGQCWNPEYQDPNFPRYGYKKYGSFGSSDHVNGKISWDHNEFKEGCKPIMARLPTAYNYPAKITFSNFTMVLSGYFKPKSTGLYKFEIHADDFILFNFGSKNAFECCNREESIDNFGPYVAYAMWPNEADQELEVYLFEDSYYPIRLFYNNRDYHSKFMVGFYPPNTEEITYDFDGYLYMLDDTGNECKDSIRYKTVCDD
# Legend:
# Test in all cases: glycan array binding signal (z-score within array); higher = stronger binding
# Conditions in all cases: glycan notation: IUPAC condensed, linker removed
# [1] = target: Gal(b1-4)GalNAc(b1-3)[Fuc(a1-2)]Gal(b1-4)GlcNAc
# Outline: (§1)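 Glycan array binding is given as a within-array Z-score, which can be read as non-binding when negative. The arrays, 3228 of them, came from the Consortium for Functional Glycomics database and were retained only where the protein sequence was available. Z-scores were averaged across arrays of the same protein sequence at different concentrations or buffers and across linkers.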
# [2] = target: Gal(b1-4)Glc
# Outline: as §1
# [3] = target: Gal(b1-4)Glc6S
# Outline: as §1
# [4] = target: Gal(b1-4)GlcNAc
# Outline: as §1
# [5] = target: Gal(b1-4)GlcNAc(a1-6)Gal(b1-4)GlcNAc
# Outline: as §1
# [6] = target: Gal(b1-4)GlcNAc(b1-2)Man
# Outline: as §1
# [7] = target: Gal(b1-4)GlcNAc(b1-2)Man(a1-3)Man(b1-4)GlcNAc(b1-4)GlcNAc
# Outline: as §1
# [8] = target: Gal(b1-4)GlcNAc(b1-2)Man(a1-3)[Gal(b1-4)GlcNAc(b1-2)Man(a1-6)]Man(b1-4)GlcNAc(b1-4)GlcNAc
# Outline: as §1
# [9] = target: Gal(b1-4)GlcNAc(b1-2)Man(a1-3)[Gal(b1-4)GlcNAc(b1-2)Man(a1-6)]Man(b1-4)GlcNAc(b1-4)[Fuc(a1-6)]GlcNAc
# Outline: as §1
# [10] = target: Gal(b1-4)GlcNAc(b1-2)Man(a1-3)[Gal(b1-4)GlcNAc(b1-2)Man(a1-6)][Gal(b1-4)GlcNAc(b1-4)]Man(b1-4)GlcNAc(b1-4)[Fuc(a1-6)]GlcNAc
# Outline: as §1
# [11] = target: Gal(b1-4)GlcNAc(b1-2)Man(a1-3)[Gal(b1-4)GlcNAc(b1-2)Man(a1-6)][GlcNAc(b1-4)]Man(b1-4)GlcNAc(b1-4)[Fuc(a1-6)]GlcNAc
# Outline: as §1
# [12] = target: Gal(b1-4)GlcNAc(b1-2)Man(a1-3)[GlcNAc(b1-2)Man(a1-6)]Man(b1-4)GlcNAc(b1-4)GlcNAc
# Outline: as §1
# [13] = target: Gal(b1-4)GlcNAc(b1-2)Man(a1-3)[GlcNAc(b1-4)][Gal(b1-4)GlcNAc(b1-2)Man(a1-6)]Man(b1-4)GlcNAc(b1-4)GlcNAc
# Outline: as §1
# [14] = target: Gal(b1-4)GlcNAc(b1-2)Man(a1-3)[Man(a1-6)]Man(b1-4)GlcNAc(b1-4)GlcNAc
# Outline: as §1
# [15] = target: Gal(b1-4)GlcNAc(b1-2)Man(a1-6)Man(b1-4)GlcNAc(b1-4)GlcNAc
# Outline: as §1
# [16] = target: Gal(b1-4)GlcNAc(b1-2)Man(a1-6)[GlcNAc(b1-2)Man(a1-3)]Man(b1-4)GlcNAc(b1-4)GlcNAc
# Outline: as §1
# [17] = target: Gal(b1-4)GlcNAc(b1-2)Man(a1-6)[Man(a1-3)]Man(b1-4)GlcNAc(b1-4)GlcNAc
# Outline: as §1
# [18] = target: Gal(b1-4)GlcNAc(b1-2)[Gal(b1-4)GlcNAc(b1-4)]Man(a1-3)[Gal(b1-4)GlcNAc(b1-2)Man(a1-6)]Man(b1-4)GlcNAc(b1-4)GlcNAc
# Outline: as §1
# [19] = target: Gal(b1-4)GlcNAc(b1-2)[Gal(b1-4)GlcNAc(b1-4)]Man(a1-3)[Gal(b1-4)GlcNAc(b1-2)[Gal(b1-4)GlcNAc(b1-6)]Man(a1-6)]Man(b1-4)GlcNAc(b1-4)GlcNAc
# Outline: as §1
# [20] = target: Gal(b1-4)GlcNAc(b1-2)[Gal(b1-4)GlcNAc(b1-4)]Man(a1-3)[GlcNAc(b1-4)][Gal(b1-4)GlcNAc(b1-2)Man(a1-6)]Man(b1-4)GlcNAc(b1-4)GlcNAc
# Outline: as §1
# [21] = target: Gal(b1-4)GlcNAc(b1-2)[Gal(b1-4)GlcNAc(b1-4)]Man(a1-3)[GlcNAc(b1-4)][Gal(b1-4)GlcNAc(b1-2)[Gal(b1-4)GlcNAc(b1-6)]Man(a1-6)]Man(b1-4)GlcNAc(b1-4)GlcNAc
# Outline: as §1
# [22] = target: Gal(b1-4)GlcNAc(b1-2)[Gal(b1-4)GlcNAc(b1-6)]Man(a1-6)[Gal(b1-4)GlcNAc(b1-2)Man(a1-3)]Man(b1-4)GlcNAc(b1-4)GlcNAc
# Outline: as §1
# [23] = target: Gal(b1-4)GlcNAc(b1-2)[Gal(b1-4)GlcNAc(b1-6)]Man(a1-6)[Gal(b1-4)GlcNAc(b1-2)Man(a1-3)]Man(b1-4)GlcNAc(b1-4)[Fuc(a1-6)]GlcNAc
# Outline: as §1
# [24] = target: Gal(b1-4)GlcNAc(b1-2)[Gal(b1-4)GlcNAc(b1-6)]Man(a1-6)[GlcNAc(b1-4)][Gal(b1-4)GlcNAc(b1-2)Man(a1-3)]Man(b1-4)GlcNAc(b1-4)GlcNAc
# Outline: as §1
# [25] = target: Gal(b1-4)GlcNAc(b1-2)[Gal(b1-4)GlcNAc(b1-6)]Man(a1-6)[GlcNAc(b1-4)][Gal(b1-4)GlcNAc(b1-2)[Gal(b1-4)GlcNAc(b1-4)]Man(a1-3)]Man(b1-4)GlcNAc(b1-4)[Fuc(a1-6)]GlcNAc
# Outline: as §1
# [26] = target: Gal(b1-4)GlcNAc(b1-3)Gal(b1-3)GalNAc
# Outline: as §1
# [27] = target: Gal(b1-4)GlcNAc(b1-3)Gal(b1-3)GlcNAc
# Outline: as §1
# [28] = target: Gal(b1-4)GlcNAc(b1-3)Gal(b1-4)Glc
# Outline: as §1
# [29] = target: Gal(b1-4)GlcNAc(b1-3)Gal(b1-4)GlcNAc
# Outline: as §1
# [30] = target: Gal(b1-4)GlcNAc(b1-3)Gal(b1-4)GlcNAc(b1-2)Man(a1-3)[Gal(b1-4)GlcNAc(b1-3)Gal(b1-4)GlcNAc(b1-2)Man(a1-6)]Man(b1-4)GlcNAc(b1-4)GlcNAc
# Outline: as §1
# [31] = target: Gal(b1-4)GlcNAc(b1-3)Gal(b1-4)GlcNAc(b1-2)Man(a1-3)[Gal(b1-4)GlcNAc(b1-3)Gal(b1-4)GlcNAc(b1-2)Man(a1-6)]Man(b1-4)GlcNAc(b1-4)[Fuc(a1-6)]GlcNAc
# Outline: as §1
# [32] = target: Gal(b1-4)GlcNAc(b1-3)Gal(b1-4)GlcNAc(b1-2)[Gal(b1-4)GlcNAc(b1-3)Gal(b1-4)GlcNAc(b1-6)]Man(a1-6)[Gal(b1-4)GlcNAc(b1-3)Gal(b1-4)GlcNAc(b1-2)Man(a1-3)]Man(b1-4)GlcNAc(b1-4)GlcNAc
# Outline: as §1
# [33] = target: Gal(b1-4)GlcNAc(b1-3)Gal(b1-4)GlcNAc(b1-2)[Gal(b1-4)GlcNAc(b1-3)Gal(b1-4)GlcNAc(b1-6)]Man(a1-6)[Gal(b1-4)GlcNAc(b1-3)Gal(b1-4)GlcNAc(b1-2)Man(a1-3)]Man(b1-4)GlcNAc(b1-4)[Fuc(a1-6)]GlcNAc
# Outline: as §1
# [34] = target: Gal(b1-4)GlcNAc(b1-3)Gal(b1-4)GlcNAc(b1-3)Gal(b1-4)GlcNAc
# Outline: as §1
# [35] = target: Gal(b1-4)GlcNAc(b1-3)Gal(b1-4)GlcNAc(b1-3)Gal(b1-4)GlcNAc(b1-2)Man(a1-3)[Gal(b1-4)GlcNAc(b1-3)Gal(b1-4)GlcNAc(b1-3)Gal(b1-4)GlcNAc(b1-2)Man(a1-6)]Man(b1-4)GlcNAc(b1-4)GlcNAc
# Outline: as §1
# [36] = target: Gal(b1-4)GlcNAc(b1-3)Gal(b1-4)GlcNAc(b1-3)Gal(b1-4)GlcNAc(b1-2)Man(a1-3)[Gal(b1-4)GlcNAc(b1-3)Gal(b1-4)GlcNAc(b1-3)Gal(b1-4)GlcNAc(b1-2)Man(a1-6)]Man(b1-4)GlcNAc(b1-4)[Fuc(a1-6)]GlcNAc
# Outline: as §1
# [37] = target: Gal(b1-4)GlcNAc(b1-3)Gal(b1-4)GlcNAc(b1-3)Gal(b1-4)GlcNAc(b1-2)[Gal(b1-4)GlcNAc(b1-3)Gal(b1-4)GlcNAc(b1-3)Gal(b1-4)GlcNAc(b1-6)]Man(a1-6)[Gal(b1-4)GlcNAc(b1-3)Gal(b1-4)GlcNAc(b1-3)Gal(b1-4)GlcNAc(b1-2)Man(a1-3)]Man(b1-4)GlcNAc(b1-4)[Fuc(a1-6)]GlcNAc
# Outline: as §1
binder,measurement,setting,value
B1,glycan array binding signal (z-score),[1],0.692
same,glycan array binding signal (z-score),[2],0.01
same,glycan array binding signal (z-score),[3],1.23
same,glycan array binding signal (z-score),[4],0.529
same,glycan array binding signal (z-score),[5],2.28
same,glycan array binding signal (z-score),[6],-0.422
same,glycan array binding signal (z-score),[7],1.01
same,glycan array binding signal (z-score),[8],1.23
same,glycan array binding signal (z-score),[9],0.479
same,glycan array binding signal (z-score),[10],0.199
same,glycan array binding signal (z-score),[11],0.633
same,glycan array binding signal (z-score),[12],0.541
same,glycan array binding signal (z-score),[13],0.202
same,glycan array binding signal (z-score),[14],0.83
same,glycan array binding signal (z-score),[15],0.135
same,glycan array binding signal (z-score),[16],0.1
same,glycan array binding signal (z-score),[17],-0.034
same,glycan array binding signal (z-score),[18],1.96
same,glycan array binding signal (z-score),[19],1.94
same,glycan array binding signal (z-score),[20],1.34
same,glycan array binding signal (z-score),[21],1.96
same,glycan array binding signal (z-score),[22],1.4
same,glycan array binding signal (z-score),[23],1.3
same,glycan array binding signal (z-score),[24],0.938
same,glycan array binding signal (z-score),[25],1.7
same,glycan array binding signal (z-score),[26],0.218
same,glycan array binding signal (z-score),[27],0.347
same,glycan array binding signal (z-score),[28],1.14
same,glycan array binding signal (z-score),[29],1.31
same,glycan array binding signal (z-score),[30],1.3
same,glycan array binding signal (z-score),[31],2.76
same,glycan array binding signal (z-score),[32],1.93
same,glycan array binding signal (z-score),[33],2.72
same,glycan array binding signal (z-score),[34],1.79
same,glycan array binding signal (z-score),[35],2.21
same,glycan array binding signal (z-score),[36],3.45
same,glycan array binding signal (z-score),[37],3.44
